Reference: publication PMC11791083
These are yes or no findings as the source states them, for the method shown. Binding seen in cells or lysates may run through a third protein. Some binding calls cover weakened binding; strength is not graded here. For part of these data: Sequences can lack the tags named with a protein.

Amino acid sequences for entries named in this document (tags omitted).
UniProt Q15717: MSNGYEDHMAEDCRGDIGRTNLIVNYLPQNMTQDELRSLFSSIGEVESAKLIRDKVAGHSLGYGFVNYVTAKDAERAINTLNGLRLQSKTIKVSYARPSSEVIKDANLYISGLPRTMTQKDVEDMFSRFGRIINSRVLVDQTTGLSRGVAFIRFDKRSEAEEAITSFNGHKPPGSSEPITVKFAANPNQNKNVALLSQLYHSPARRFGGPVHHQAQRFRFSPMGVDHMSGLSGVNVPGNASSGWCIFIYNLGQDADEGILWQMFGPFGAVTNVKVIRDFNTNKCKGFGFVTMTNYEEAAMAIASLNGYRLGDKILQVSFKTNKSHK
UniProt Q8N884: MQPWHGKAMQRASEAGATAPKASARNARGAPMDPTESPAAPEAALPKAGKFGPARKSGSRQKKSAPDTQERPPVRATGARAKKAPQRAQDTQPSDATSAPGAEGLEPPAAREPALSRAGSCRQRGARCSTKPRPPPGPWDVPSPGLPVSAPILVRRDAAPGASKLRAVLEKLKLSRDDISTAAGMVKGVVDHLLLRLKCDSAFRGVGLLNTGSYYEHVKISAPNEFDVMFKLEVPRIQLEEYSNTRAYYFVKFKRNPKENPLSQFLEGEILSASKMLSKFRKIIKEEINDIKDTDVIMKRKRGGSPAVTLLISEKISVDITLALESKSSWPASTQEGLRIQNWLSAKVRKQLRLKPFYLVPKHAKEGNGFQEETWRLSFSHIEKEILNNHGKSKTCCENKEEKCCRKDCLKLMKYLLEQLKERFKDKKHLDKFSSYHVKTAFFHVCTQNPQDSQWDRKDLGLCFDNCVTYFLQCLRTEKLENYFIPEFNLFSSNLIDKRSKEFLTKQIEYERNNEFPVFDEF
UniProt Q04206: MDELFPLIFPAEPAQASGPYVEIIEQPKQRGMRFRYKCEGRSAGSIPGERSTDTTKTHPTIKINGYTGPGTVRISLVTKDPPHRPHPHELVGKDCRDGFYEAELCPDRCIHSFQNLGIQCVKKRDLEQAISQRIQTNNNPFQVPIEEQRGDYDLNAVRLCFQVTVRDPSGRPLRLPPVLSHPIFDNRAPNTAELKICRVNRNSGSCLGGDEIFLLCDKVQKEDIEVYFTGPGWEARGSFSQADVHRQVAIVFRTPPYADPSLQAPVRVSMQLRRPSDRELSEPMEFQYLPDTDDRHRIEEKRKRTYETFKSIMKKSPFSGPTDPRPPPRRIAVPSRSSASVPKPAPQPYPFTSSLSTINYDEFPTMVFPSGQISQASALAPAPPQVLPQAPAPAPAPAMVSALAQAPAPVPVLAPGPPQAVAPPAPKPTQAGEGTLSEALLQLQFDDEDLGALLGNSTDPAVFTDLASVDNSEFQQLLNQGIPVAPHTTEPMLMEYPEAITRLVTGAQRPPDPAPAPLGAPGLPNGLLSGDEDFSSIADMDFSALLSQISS

Experiments:
[1] = target: T1, heterogeneous nuclear ribonucleoprotein M, C-terminally GFP-tagged (hnRNPM-GFP) (human) (UniProt P52272); assay: proximity ligation; Duolink PLA in fixed PMA-differentiated THP-1 cells expressing hnRNPM-GFP, ELAVL1-GFP or GFP, non-stimulated or transfected with G3-YSD-AF647 (0.5 µg/ml, 4 h); anti-GFP with anti-pTBK1-Ser172 or anti-ELAVL1; puncta per cell counted as PLA score
T1 sequence: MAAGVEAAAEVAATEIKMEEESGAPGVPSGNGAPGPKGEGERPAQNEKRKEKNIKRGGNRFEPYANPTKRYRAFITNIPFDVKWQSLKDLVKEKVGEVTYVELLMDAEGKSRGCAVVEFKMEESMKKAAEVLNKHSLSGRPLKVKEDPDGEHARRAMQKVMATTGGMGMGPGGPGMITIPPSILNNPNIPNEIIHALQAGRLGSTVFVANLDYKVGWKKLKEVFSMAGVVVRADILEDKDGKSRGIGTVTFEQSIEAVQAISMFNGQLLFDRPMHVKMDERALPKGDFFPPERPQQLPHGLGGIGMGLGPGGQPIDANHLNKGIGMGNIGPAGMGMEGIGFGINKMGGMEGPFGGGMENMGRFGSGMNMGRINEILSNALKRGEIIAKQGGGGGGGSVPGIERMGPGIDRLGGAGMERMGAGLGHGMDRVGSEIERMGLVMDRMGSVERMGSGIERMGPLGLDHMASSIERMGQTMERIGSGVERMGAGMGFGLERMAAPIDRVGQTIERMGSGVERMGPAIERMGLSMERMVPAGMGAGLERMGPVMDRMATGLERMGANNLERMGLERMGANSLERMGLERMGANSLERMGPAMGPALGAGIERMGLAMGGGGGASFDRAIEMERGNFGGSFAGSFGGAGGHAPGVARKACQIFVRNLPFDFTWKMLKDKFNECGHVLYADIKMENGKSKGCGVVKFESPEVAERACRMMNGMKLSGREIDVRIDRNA

[2] = target: T1, heterogeneous nuclear ribonucleoprotein M, C-terminally GFP-tagged (hnRNPM-GFP) (human); assay: co-IP; GFP-Trap magnetic agarose on lysates of THP-1 cells expressing hnRNPM-GFP or GFP, non-stimulated or pDNA-stimulated (0.1 µg/ml, 3 h); TAP lysis buffer, 4 °C overnight; IPs with or without RNase A (100 µg/ml, 1.5 h); immunoblot
[3] = target: ELAV-like protein 1, FLAG-tagged (ELAVL1-FLAG) (human) (UniProt Q15717); assay: co-IP; anti-FLAG M2 magnetic beads on lysates of HEK293FT cells transfected with ELAVL1-FLAG or WT cells; 4 °C overnight; IPs with or without RNase A (100 µg/ml, 1.5 h); elution with 3x FLAG peptide; immunoblot

| binding [1] | binding [2] | binding [3] | Substance |
| --- | --- | --- | --- |
| binds | binds |  | ELAV-like protein 1 (ELAVL1), endogenous in THP-1 (from UniProt Q15717 1-326) |
|  | no binding |  | cyclic GMP-AMP synthase (cGAS), endogenous in THP-1 (from UniProt Q8N884 1-522) |
|  | binds |  | NF-κB p65 phosphorylated at Ser536 (NF-κB pp65-Ser536), endogenous in THP-1 (from UniProt Q04206 1-551) |
|  | binds |  | NF-κB p65, endogenous in THP-1 (from UniProt Q04206 1-551) |
|  |  | binds | NF-κB p65, endogenous in HEK293FT (from UniProt Q04206 1-551) |
